Results reported in PubChem BioAssay AID2676 (National Center for Advancing Translational Sciences (NCATS), 2010).
About 1,100 (0.3%) of roughly 370,000 compounds were called active. This list was built around the results that the source calls inconclusive (neither active nor inactive); the mix of calls is not that of the screen. Calls come from the whole dose curve; as a rule, active = well fitted activation curve with a large enough effect; inconclusive = small, poorly fitted or top-dose-only effect; inactive = flat fitted curve, though single readings scatter. A potency beside an inconclusive call is a rough fit, not a confirmed value.
% is set by controls: 0 for no effect and ±100 for the full control effect; potency is the fitted concentration of half-maximal effect; tags give direction and shape of the fitted curve.
Note: nearly all actives have a fitted effect of over 60% in size.

Each compound was assayed against Relaxin receptor 1 (Homo sapiens) (UniProt Q9HBX9) (assay: qHTS Assay for Agonists of the Relaxin Receptor RXFP1). Conditions: HEK293T-RXFP1 cAMP TR-FRET, 30 min; series mostly up to 57.5 µM; activation: at the top concentration.
Sequence of UniProt Q9HBX9 (Q9HBX9 whole entry, looked up): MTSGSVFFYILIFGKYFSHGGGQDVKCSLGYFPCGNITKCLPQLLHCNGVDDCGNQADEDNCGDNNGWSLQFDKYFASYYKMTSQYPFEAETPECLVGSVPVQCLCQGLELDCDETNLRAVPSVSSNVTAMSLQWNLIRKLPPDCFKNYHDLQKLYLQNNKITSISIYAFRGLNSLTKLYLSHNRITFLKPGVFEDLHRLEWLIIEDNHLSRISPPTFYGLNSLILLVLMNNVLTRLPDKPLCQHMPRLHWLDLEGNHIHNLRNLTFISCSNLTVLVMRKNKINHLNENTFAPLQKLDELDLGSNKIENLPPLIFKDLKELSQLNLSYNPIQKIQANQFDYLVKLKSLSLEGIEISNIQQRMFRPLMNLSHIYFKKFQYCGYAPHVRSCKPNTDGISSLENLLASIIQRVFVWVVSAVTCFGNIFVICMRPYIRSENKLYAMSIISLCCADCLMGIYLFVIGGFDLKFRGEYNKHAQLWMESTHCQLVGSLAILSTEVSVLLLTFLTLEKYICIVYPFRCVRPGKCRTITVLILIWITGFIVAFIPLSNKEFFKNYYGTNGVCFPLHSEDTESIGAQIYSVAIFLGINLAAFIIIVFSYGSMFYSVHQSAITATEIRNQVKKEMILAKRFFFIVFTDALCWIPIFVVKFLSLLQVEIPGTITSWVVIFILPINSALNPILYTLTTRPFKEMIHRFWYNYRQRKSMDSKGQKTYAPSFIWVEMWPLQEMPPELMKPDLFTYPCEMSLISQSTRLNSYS
In short: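 HEK293 cells stably expressing RXFP1, treated 30 min at 37C with compounds plus PDE4 inhibitor Ro 20174; cAMP measured by HTRF TR-FRET. Normalized to buffer and 29 nM porcine relaxin; EC50 by Hill fit.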
`O=c1[nH]nc(Cc2ccc(-c3ccc(Cl)cc3)o2)c2ccccc12` was tested, and the Potency was inconclusive: 35.5 µM [activator, single point]. For `CCOc1cccc(C(=O)Nc2c(C(=O)c3ccc(OC)cc3)oc3ccccc23)c1`, the Potency was inconclusive: 39.8 µM [activator, single point]. With `Cc1cccc(N(C(=O)c2snc(C(N)=O)c2N)C(C(=O)NCC2CCCO2)c2ccc(N(C)C)cc2)c1C` (centres undefined) the Potency was inconclusive: 28.2 µM [activator, single point]. With `COc1ccc(-c2ccc(C(=O)O)c(=O)[nH]2)cc1` the Potency was inconclusive: 25.1 µM [activator, partial curve]. In the case of `O=C(Nc1ccc2c(c1)OCO2)C1CCN(c2ccc(S(=O)(=O)N3CCOCC3)cc2)CC1`, the Potency is reported as inconclusive: 31.6 µM [activator, single point]. `O=C(Nc1ccccc1)C(Cc1ccccc1)N1Cc2ccccc2C1=O` (centres undefined) was tested, and the “activation” value was inactive: 4.02%. With `Cc1cccc(OCC(=O)Nc2c(C)ccc3nsnc23)c1C` the Potency was inconclusive: 39.8 µM [activator, single point]. With `CCc1cc2cc3c(cc2nc1SCC(=O)Nc1nccs1)OCO3` the Potency was active: 12.6 µM. For `Cc1ccc(-c2csc3nc4cc(C(=O)NC5CCC(O)CC5)ccc4c(=O)n23)cc1` (centres undefined), the Potency was inconclusive: 28.2 µM [activator, partial curve]. With `Cc1ccnc(N2CCC(C(=O)NCc3ccccc3F)CC2)n1` the Potency was inconclusive: 31.6 µM [activator, single point]. `COc1ccc(NC(=O)CSc2ncc3c(n2)-c2cc(Cl)ccc2N(Cc2ccccc2F)S3(=O)=O)cc1` was tested, and the Potency was inconclusive: 39.8 µM [activator, single point]. `Cc1cccn2c(=O)c3cc(C(=O)NCC4CCCO4)c(=N)n(CCc4ccccc4)c3nc12` (centres undefined) was tested, and the Potency was inconclusive: 28.2 µM [activator, partial curve]. `Cc1ccc(Cn2c(C(=O)O)c(CNCc3ccccc3Cl)c3ccc(C)cc32)cc1` was tested, and the Potency was inconclusive: 39.8 µM [activator, single point]. With `Cc1[nH]n(-c2ccc([N+](=O)[O-])cc2)c(=O)c1C=NCCN1CCN(C(=O)C(C)C)CC1` the Potency was active: 25.1 µM. `COc1ccc(Cl)cc1NC(=O)CSc1nnc(C)n2c1cc1occc12` was tested, and the Potency was inconclusive: 25.1 µM [activator, partial curve]. With `CC(C)NC(=O)CC(=O)N/N=C/c1cccs1` the Potency was inconclusive: 35.5 µM [activator, single point]. `N#Cc1cc2cc3c(cc2nc1N1CCOCC1)OCO3` was tested, and the Potency was inconclusive: 35.5 µM [activator, single point]. For `O=C(Nc1ccc(Cl)cc1Cl)c1ccc(-c2ccccc2)cc1`, the Potency was inconclusive: 39.8 µM [activator, single point]. With `Cc1ccc(C(=O)c2cn(Cc3ccc(F)cc3)c3nc(C)ccc3c2=O)cc1` the Potency was inconclusive: 39.8 µM [activator, single point]. `COc1ccc2cc(C(=O)N(C)Cc3ccccc3)[nH]c2c1` was tested, and the Potency was inconclusive: 35.5 µM [activator, single point]. With `COc1ccc(-n2nnnc2SCC(=O)c2ccc3c(c2)OCCO3)cc1` the Potency was inconclusive: 39.8 µM [activator, single point]. With `O=C(CSc1ccc2nnc(-c3cccnc3)n2n1)Nc1cccc(F)c1` the Potency was inconclusive: 20 µM [activator, partial curve]. `COc1ccc(C(=O)NC(=S)Nc2ccc(N3CCCC3)cc2)cc1` was tested, and the “activation” value was inactive: -0.41%. With `Cc1ccc(C2c3cccn3CCN2S(=O)(=O)c2ccc([N+](=O)[O-])cc2)cc1` (centres undefined) the “activation” value was inactive: -2.67%. For `CCOC(=O)c1cc2c(=O)n3ccccc3nc2n(Cc2ccco2)c1=NC(=O)c1ccccc1OCC`, the Potency was active: 28.2 µM. `CC1(C)CC(=O)c2sc(NS(=O)(=O)c3ccc(F)cc3)nc2C1` was tested, and the Potency was inconclusive: 31.6 µM [activator, single point]. `COC(=O)c1ccccc1NC(=O)CSc1nc2sc3c(c2c(=O)[nH]1)CCCC3` was tested, and the Potency was inconclusive: 39.8 µM [activator, single point]. In the case of `CCOCCCNC(=O)CN1C(=O)CSc2ccccc21`, the “activation” value is reported as inactive: 0.118%. For `CCC(CC)C(=O)Nc1c2c(nn1-c1ccc(F)cc1)CS(=O)(=O)C2`, the “activation” value was inactive: 1.72%. With `COc1cccc(C(=O)N=c2sc3cc(S(C)(=O)=O)ccc3n2C)c1` the Potency was inconclusive: 39.8 µM [activator, single point]. With `Cc1ccc2scc(N3CCN(c4ccccc4)CC3)c(=O)c2c1` the “activation” value was inactive: 1.58%. `c1ccc(CN=C2NN=C(c3ccccc3)CS2)cc1` was tested, and the “activation” value was inactive: -1.35%. In the case of `Cc1ccc(/C=N/n2c(COc3ccccc3)n[nH]c2=S)cc1`, the “activation” value is reported as inactive: -0.116%. With `Cc1ccccc1NC(=O)Cn1c(=O)n(CCCCC(=O)NCc2ccccc2Cl)c(=O)c2ccccc21` the “activation” value was inactive: -0.36%. `N#Cc1c(-c2ccccc2)c(C#N)c2nc3ccccc3n2c1N` was tested, and the Potency was inconclusive: 31.6 µM [activator, single point]. For `Cc1ccc2cccc(NC(=O)c3cccc4c(Br)cccc34)c2n1`, the “activation” value was inactive: -1.19%. For `Cc1cc(C)c2nc(N3CCCC(C(=O)NCc4ccccc4F)C3)sc2c1` (centres undefined), the “activation” value was inactive: 0.453%. In the case of `CCOC(=O)CC(NC(=O)c1cc2c(=O)n3cccc(C)c3nc2s1)c1ccc(OCC)c(OC)c1` (centres undefined), the Potency is reported as inconclusive: 25.1 µM [activator, partial curve]. For `COc1ccc(NC(=O)CN2CCN(Cc3ccccc3Cl)S2(=O)=O)cc1Cl`, the “activation” value was inactive: 0.761%. In the case of `O=C(Nc1ccccc1)c1ccc(COc2ccccc2)cc1`, the Potency is reported as inconclusive: 22.4 µM [activator, single point]. For `COc1ccc(NC(=O)C2CCCN(S(=O)(=O)c3ccc4[nH]c(=O)ccc4c3)C2)cc1` (centres undefined), the Potency was inconclusive: 39.8 µM [activator, single point]. `Cn1c(=O)c(=O)n(C)c2cc(S(=O)(=O)N3CC(=O)N(CCc4ccccc4)C(=O)C3)ccc21` was tested, and the Potency was inconclusive: 15.8 µM [activator, partial curve]. In the case of `CSc1nc(SCC(=O)O)c2c3c(sc2n1)COC(C)(C)C3`, the Potency is reported as inconclusive: 28.2 µM [activator, partial curve]. For `O=C(CSc1ncnc2c1oc1ccccc12)NC1CCCC1`, the Potency was inconclusive: 20 µM [activator, partial curve].
